According to the supplement of paper PMC8728848:
Some of the results follow.

How the values were obtained:
Experiment in all cases: glycan array binding signal (z-score within array); higher = stronger binding
Details in all cases: glycan notation: IUPAC condensed, linker removed; mutation: N288D, K313I
[1] = molecular target: Neu5Ac(a2-6)Gal(b1-4)GlcNAc(b1-6)[Gal(b1-3)GlcNAc(b1-3)]Gal(b1-4)Glc
In short: (§1)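 The Consortium for Functional Glycomics database supplied 3228 glycan arrays, of which those lacking an available protein sequence were dropped. The binding signal, a within-array Z-score, was averaged across arrays of the same protein sequence and across linkers. Negative scores can be read as non-binding.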

[2] = molecular target: Neu5Ac(a2-6)Gal(b1-4)GlcNAc(b1-6)[Gal(b1-3)]GalNAc
In short: as §1

[3] = molecular target: Neu5Ac(a2-6)Gal(b1-4)GlcNAc6S
In short: as §1

Neu5Ac(a2-6)GalNAc = molecular target: Neu5Ac(a2-6)GalNAc
In short: as §1

[4] = molecular target: Neu5Ac(a2-6)GalNAc(b1-4)GlcNAc
In short: as §1

[5] = molecular target: Neu5Ac(a2-6)GalNAc(b1-4)GlcNAc6S
In short: as §1

[6] = molecular target: Neu5Ac(a2-6)GlcNAc(b1-4)GlcNAc
In short: as §1

[7] = molecular target: Neu5Ac(a2-6)GlcNAc(b1-4)GlcNAc(b1-4)GlcNAc
In short: as §1

Neu5Ac(a2-8)Neu5Ac = molecular target: Neu5Ac(a2-8)Neu5Ac
In short: as §1

[8] = molecular target: Neu5Ac(a2-8)Neu5Ac(a2-3)Gal(b1-3)GalNAc(b1-4)[Neu5Ac(a2-3)]Gal(b1-4)Glc
In short: as §1

[9] = molecular target: Neu5Ac(a2-8)Neu5Ac(a2-3)Gal(b1-3)GalNAc(b1-4)[Neu5Ac(a2-8)Neu5Ac(a2-3)]Gal(b1-4)Glc
In short: as §1

[10] = molecular target: Neu5Ac(a2-8)Neu5Ac(a2-3)Gal(b1-4)Glc
In short: as §1

[11] = molecular target: Neu5Ac(a2-8)Neu5Ac(a2-3)Gal(b1-4)GlcNAc
In short: as §1

[12] = molecular target: Neu5Ac(a2-8)Neu5Ac(a2-3)[Gal(b1-3)GalNAc(b1-4)]Gal(b1-4)Glc
In short: as §1

[13] = molecular target: Neu5Ac(a2-8)Neu5Ac(a2-3)[GalNAc(b1-4)]Gal(b1-4)Glc
In short: as §1

[14] = molecular target: Neu5Ac(a2-8)Neu5Ac(a2-8)Neu5Ac
In short: as §1

[15] = molecular target: Neu5Ac(a2-8)Neu5Ac(a2-8)Neu5Ac(a2-3)Gal(b1-4)Glc
In short: as §1

[16] = molecular target: Neu5Ac(a2-8)Neu5Ac(a2-8)Neu5Ac(a2-3)[Gal(b1-3)GalNAc(b1-4)]Gal(b1-4)Glc
In short: as §1

[17] = molecular target: Neu5Ac(a2-8)Neu5Ac(a2-8)Neu5Ac(a2-3)[GalNAc(b1-4)]Gal(b1-4)Glc
In short: as §1

[18] = molecular target: Neu5Ac(a2-8)Neu5Ac(a2-8)Neu5Ac(a2-8)Neu5Ac(a2-3)[GalNAc(b1-4)]Gal(b1-4)Glc
In short: as §1

[19] = molecular target: Neu5Ac(a2-8)Neu5Gc(a2-3)Gal(b1-4)GlcNAc
In short: as §1

[20] = molecular target: Neu5Ac(b2-6)Gal(b1-4)GlcNAc
In short: as §1

Neu5Ac(b2-6)GalNAc = molecular target: Neu5Ac(b2-6)GalNAc
In short: as §1

[21] = molecular target: Neu5Ac9Ac(a2-3)Gal(b1-3)GlcNAc
In short: as §1

[22] = molecular target: Neu5Ac9Ac(a2-3)Gal(b1-4)GlcNAc
In short: as §1

[23] = molecular target: Neu5Ac9Ac(a2-6)Gal(b1-4)GlcNAc
In short: as §1

[24] = molecular target: Neu5Gc(a2-3)Gal(b1-3)GlcNAc
In short: as §1

[25] = molecular target: Neu5Gc(a2-3)Gal(b1-3)[Fuc(a1-4)]GlcNAc
In short: as §1

Neu5Gc(a2-3)Gal(b1-4)Glc = molecular target: Neu5Gc(a2-3)Gal(b1-4)Glc
In short: as §1

[26] = molecular target: Neu5Gc(a2-3)Gal(b1-4)GlcNAc
In short: as §1

[27] = molecular target: Neu5Gc(a2-3)Gal(b1-4)GlcNAc(b1-3)Gal(b1-4)GlcNAc(b1-2)Man(a1-3)[Neu5Gc(a2-3)Gal(b1-4)GlcNAc(b1-3)Gal(b1-4)GlcNAc(b1-2)Man(a1-6)]Man(b1-4)GlcNAc(b1-4)GlcNAc
In short: as §1

[28] = molecular target: Neu5Gc(a2-3)Gal(b1-4)[Fuc(a1-3)]GlcNAc
In short: as §1

[29] = molecular target: Neu5Gc(a2-6)Gal(b1-4)GlcNAc
In short: as §1

Neu5Gc(a2-6)GalNAc = molecular target: Neu5Gc(a2-6)GalNAc
In short: as §1

[30] = molecular target: Neu5Gc(a2-8)Neu5Ac(a2-3)Gal(b1-4)GlcNAc
In short: as §1

[31] = molecular target: Neu5Gc(a2-8)Neu5Gc(a2-3)Gal(b1-4)GlcNAc
In short: as §1

[32] = molecular target: Neu5Gc(a2-8)Neu5Gc(a2-3)Gal(b1-4)GlcNAc(b1-3)Gal(b1-4)GlcNAc
In short: as §1

[33] = molecular target: Neu5Gc(a2-8)Neu5Gc(a2-6)Gal(b1-4)GlcNAc
In short: as §1

[34] = molecular target: Neu5Gc(b2-6)Gal(b1-4)GlcNAc
In short: as §1

B1: Langerin (Homo sapiens), Q9UJ71 (protein)
chain: STLNAQIPELKSDLEKASALNTKIRALQGSLENMSKLLKRQNDILQVVSQGWKYFKGNFYYFSLIPKTWYSAEQFCVSRNSHLTSVTSESEQEFLYKTAGGLIYWIGLTKAGMEGDWSWVDDTPFNKVQSARFWIPGEPNDAGNNEHCGNIKAPSLQAWNDAPCDITFLFICKRPYVPSEP
[1]
  glycan array binding signal (z-score): -0.258
[2]
  glycan array binding signal (z-score): 0.089
[3]
  glycan array binding signal (z-score): -0.317
Neu5Ac(a2-6)GalNAc
  glycan array binding signal (z-score): -0.279
[4]
  glycan array binding signal (z-score): -0.179
[5]
  glycan array binding signal (z-score): -0.171
[6]
  glycan array binding signal (z-score): -0.161
[7]
  glycan array binding signal (z-score): -0.342
Neu5Ac(a2-8)Neu5Ac
  glycan array binding signal (z-score): -0.262
[8]
  glycan array binding signal (z-score): -0.283
[9]
  glycan array binding signal (z-score): -0.248
[10]
  glycan array binding signal (z-score): -0.237
[11]
  glycan array binding signal (z-score): -0.24
[12]
  glycan array binding signal (z-score): -0.08
[13]
  glycan array binding signal (z-score): -0.041
[14]
  glycan array binding signal (z-score): -0.207
[15]
  glycan array binding signal (z-score): -0.151
[16]
  glycan array binding signal (z-score): -0.318
[17]
  glycan array binding signal (z-score): -0.152
[18]
  glycan array binding signal (z-score): -0.254
[19]
  glycan array binding signal (z-score): -0.209
[20]
  glycan array binding signal (z-score): -0.282
Neu5Ac(b2-6)GalNAc
  glycan array binding signal (z-score): -0.196
[21]
  glycan array binding signal (z-score): -0.16
[22]
  glycan array binding signal (z-score): -0.434
[23]
  glycan array binding signal (z-score): -0.229
[24]
  glycan array binding signal (z-score): -0.268
[25]
  glycan array binding signal (z-score): -0.213
Neu5Gc(a2-3)Gal(b1-4)Glc
  glycan array binding signal (z-score): -0.045
[26]
  glycan array binding signal (z-score): -0.287
[27]
  glycan array binding signal (z-score): -0.167
[28]
  glycan array binding signal (z-score): -0.191
[29]
  glycan array binding signal (z-score): -0.375
Neu5Gc(a2-6)GalNAc
  glycan array binding signal (z-score): -0.265
[30]
  glycan array binding signal (z-score): -0.268
[31]
  glycan array binding signal (z-score): -0.307
[32]
  glycan array binding signal (z-score): -0.261
[33]
  glycan array binding signal (z-score): -0.178
[34]
  glycan array binding signal (z-score): -0.231
